Results on 44 compounds are retold here after ChEMBL document CHEMBL4888484, “Replenishing the malaria drug discovery pipeline: Screening and hit evaluation of the MMV Hit Generation Library 1 (HGL1) against asexual blood stage Plasmodium falciparum ,using a nano luciferase reporter read-out” (2022).

Usually % Inhibition stands for the drop in the measured response relative to a control, in per cent.

SMILES strings stand for the structures. Out of some 150,000 compounds screened, about 540 (0.36%) showed an effect of 50% or more. This is one part of the list.

In the assay the test system is Plasmodium falciparum. The assay can be described thus: Primary screen in NF54 nanoGlo assay, in single point, at 2uM, 72h; a lower Z score goes with more inhibition. It counts as functional, Erythrocyte. The following applies: timepoint 72 hour.
With `Cc1cccc(CN(C)CCc2c(C)n[nH]c2C)n1`, the “% Inhibition” value was 7% and the Z score is on record as -0.83.

Consider `CC(C)CC(=O)NCc1nnc(C(=O)Nc2ccc3c(c2)OCO3)s1`, for which the “% Inhibition” value is listed as -7% and the Z score is listed as 1.21.

For `C[C@@H](Cc1ccc(F)cc1)NS(=O)(=O)CCCF`, the “% Inhibition” value is reported as -11% and the Z score is 1.01.

Turning to `CCOCC(=O)Nc1ccc(C(C)=O)c(Cl)c1`, the “% Inhibition” value is listed as 38% and the Z score is listed as -5.13.

Take `COc1cccc(-n2cc(-c3ccc(Cl)cc3)nc2NC(=O)CN(C(C)C)S(=O)(=O)c2ccc(Cl)cc2)c1`: the “% Inhibition” value was -16% and the Z score turned out to be 2.39.

In the case of `COc1ccc(CN2CCN(Cc3nc(C(=O)NCc4ccco4)co3)CC2)cc1`, the “% Inhibition” value was 1% and the Z score is -0.08.

On to `Cc1cc(-n2cncn2)ccc1C(=O)OCCn1cncn1`, for which the “% Inhibition” value is listed as -13% and the Z score amounted to 1.12.

Turning to `COc1ccc(CNC(=O)c2nn(-c3ccc(F)cc3)c3ccccc3c2=O)cc1OC`, the “% Inhibition” value is listed as -5% and the Z score amounted to 0.92.

Turning to `c1cncc(-n2cccc2[C@@H]2NCCc3[nH]cnc32)c1`, the “% Inhibition” value is -4% and the Z score amounted to 0.33.

As to `O=C(N[C@@H]1COc2c(F)cc(F)cc2C1)c1ccc(Cn2cc(Cl)cn2)s1`, the “% Inhibition” value is recorded as -6% and the Z score stood at 0.89.

Take `CN(C)c1ccc(NC(=O)Cc2noc3ccccc23)nc1`: the “% Inhibition” value amounted to 1% and the Z score is reported as -0.14.

With `Cc1ccc(F)cc1C(=O)N[C@H]1CCCc2c1ccc(=O)n2C`, the “% Inhibition” value was 0% and the Z score stood at 0.01.

Turning to `COc1ccc(CN2CCN3CCC[C@H]3C2)c(OC)c1OC`, the “% Inhibition” value was -17% and the Z score turned out to be 2.06.

In the case of `COC(=O)CCS(=O)(=O)N1CCCC1`, the “% Inhibition” value is -6% and the Z score was found to be 0.85.

For the compound `COc1ccccc1-c1cc(C(F)(F)F)n2ncc(C(=O)OCCc3c(C)noc3C)c2n1`, the “% Inhibition” value is reported as -5% and the Z score worked out at 0.73.

Turning to `OCC1(O)CCN(c2nccc(C3CCCC3)n2)CC1`, the “% Inhibition” value was -3% and the Z score is reported as 0.51.

With `Cc1csc(C(C)CN=C(N)N2C[C@@H](C)O[C@@H](C)C2)n1` (stereo partly drawn), the “% Inhibition” value is listed as -13% and the Z score worked out at 2.15.

For `CN1CCC[C@@]2(CCN(C(=O)CCn3cc(Cl)cn3)C2)C1`, the “% Inhibition” value is recorded as 1% and the Z score is recorded as -0.1.

For `Cc1cc(C(=O)Nc2c(C)cccc2C)c2c(C)nn(-c3cccc(Cl)c3C)c2n1`, the “% Inhibition” value worked out at 6% and the Z score is on record as -0.8.

Regarding `CC(C)CCN(CCC#N)C(=O)[C@@H]1CC=CCC1`, the “% Inhibition” value is listed as -12% and the Z score stood at 1.26.

With `CC[C@H](C)NC(=O)c1ccc(-c2c(C)n[nH]c2C)o1`, the “% Inhibition” value is 2% and the Z score is on record as -0.36.

With `O=C(c1ccsc1)N1CCN(S(=O)(=O)c2ccc(F)cc2)CC1`, the “% Inhibition” value was -3% and the Z score is given as 0.62.

With `CCC1(S(=O)(=O)NC(=O)[C@H]2CCCC2(C)C)CC1`, the “% Inhibition” value is given as 12% and the Z score is recorded as -1.2.

For `Cc1ccc2c(c1)N(Cc1nc(C)cs1)CCCO2`, the “% Inhibition” value is reported as -3% and the Z score stood at 0.59.

As for `CC(C)(c1nc(C[C@H]2CCC3(CCOCC3)CO2)no1)C(F)F`, the “% Inhibition” value was -5% and the Z score was found to be 0.74.

Consider `C#CCn1cc(CNc2nc(CC(C)C)ns2)cn1`, for which the “% Inhibition” value is given as -23% and the Z score stood at 2.68.

As for `Cc1nc([C@H](C)n2ccnc2-c2cc(C(C)(C)C)[nH]n2)cs1`, the “% Inhibition” value is given as -9% and the Z score turned out to be 1.17.

In the case of `CC(=O)C[C@H](C)NC(=O)c1cncc(C)c1`, the “% Inhibition” value is given as -14% and the Z score is on record as 2.3.

`COCCN1[C@@H]2CCN(Cc3ccccc3C#N)C[C@@]2(C(=O)N2CCOCC2)CCS1(=O)=O`: the “% Inhibition” value was -9% and the Z score worked out at 1.34.

For `Cc1cccc(-c2nc(-c3cccnc3)nn2C2CCN(C)CC2)n1`, the “% Inhibition” value was -6% and the Z score is listed as 0.98.

As for `N=C(NOS(=O)(=O)c1ccc(Cl)cc1)c1ccncc1`, the “% Inhibition” value was -6% and the Z score was determined as 0.83.

Consider `O=C(C1CCCC1)N1CCCC[C@H]1c1noc(COCc2ccccc2)n1`, for which the “% Inhibition” value is -5% and the Z score is listed as 0.66.

Regarding `O=C(Nc1ccccc1-n1cncn1)[C@@H]1CC=CCC1`, the “% Inhibition” value is reported as 4% and the Z score is given as -0.58.

`Cc1cccc(CCNc2nc3c(s2)c(C)nn3C)n1`: the “% Inhibition” value was -1% and the Z score came to 0.25.

For `Cc1ccc2ncnc(N3CCS(=O)(=O)C[C@@H](C)C3)c2c1`, the “% Inhibition” value was -9% and the Z score is 0.97.

For `Cc1nn(C2CCS(=O)(=O)C2)c2c1C(c1cccc(OC(F)F)c1)CC(=O)N2` (stereo not drawn), the “% Inhibition” value is listed as -13% and the Z score turned out to be 1.63.

Turning to `O=C(NCc1ccc(C2CC2)nc1)c1ccc(F)cc1`, the “% Inhibition” value was -4% and the Z score turned out to be 0.48.

As for `CCc1ccccc1NC(=O)CN(C)CC(=O)Nc1cc(C(C)(C)C)no1`, the “% Inhibition” value is -5% and the Z score is listed as 0.4.

For the compound `CCOc1cccc(C(=O)N2CC3CN(c4ccccc4)CC3C2)c1` (stereo not drawn), the “% Inhibition” value worked out at 6% and the Z score is reported as -1.22.

With `CC(C)(C)c1nsc(NCC2(C(N)=O)CCOCC2)n1`, the “% Inhibition” value is given as -13% and the Z score is listed as 1.5.

As for `c1ccc2oc(N[C@H]3COC[C@@H]3N3CCCC3)nc2c1`, the “% Inhibition” value stood at 2% and the Z score is given as -0.32.

As for `COCCN1CCC[C@@H]1CNC(=O)Nc1cccc(F)c1`, the “% Inhibition” value was -2% and the Z score is 0.23.

With `CC[C@H](C)[C@@H](C(=O)Nc1nc(CC(=O)NC)cs1)n1cnnn1`, the “% Inhibition” value is on record as -11% and the Z score came to 1.41.

`O=C(c1nccs1)c1cccnc1N1CCn2nc(CO)cc2C1`: the “% Inhibition” value was -2% and the Z score is reported as 0.31.
